Experimental data: article PMC4336329 (PLoS ONE, 2015)
The campaign covered roughly 310,000 compounds. About 2,200 (0.71%) showed an effect of 50% or more. The effect is printed as a negative number. Some of the results follow.

Each compound was assayed against human ether-à-go-go-related gene (hERG) potassium channel (human, UniProt Q12809) (assay: primary screen, population patch clamp on CHO cells stably expressing hERG).
Chain of human ether-à-go-go-related gene (hERG) potassium channel (Q12809 whole entry, looked up): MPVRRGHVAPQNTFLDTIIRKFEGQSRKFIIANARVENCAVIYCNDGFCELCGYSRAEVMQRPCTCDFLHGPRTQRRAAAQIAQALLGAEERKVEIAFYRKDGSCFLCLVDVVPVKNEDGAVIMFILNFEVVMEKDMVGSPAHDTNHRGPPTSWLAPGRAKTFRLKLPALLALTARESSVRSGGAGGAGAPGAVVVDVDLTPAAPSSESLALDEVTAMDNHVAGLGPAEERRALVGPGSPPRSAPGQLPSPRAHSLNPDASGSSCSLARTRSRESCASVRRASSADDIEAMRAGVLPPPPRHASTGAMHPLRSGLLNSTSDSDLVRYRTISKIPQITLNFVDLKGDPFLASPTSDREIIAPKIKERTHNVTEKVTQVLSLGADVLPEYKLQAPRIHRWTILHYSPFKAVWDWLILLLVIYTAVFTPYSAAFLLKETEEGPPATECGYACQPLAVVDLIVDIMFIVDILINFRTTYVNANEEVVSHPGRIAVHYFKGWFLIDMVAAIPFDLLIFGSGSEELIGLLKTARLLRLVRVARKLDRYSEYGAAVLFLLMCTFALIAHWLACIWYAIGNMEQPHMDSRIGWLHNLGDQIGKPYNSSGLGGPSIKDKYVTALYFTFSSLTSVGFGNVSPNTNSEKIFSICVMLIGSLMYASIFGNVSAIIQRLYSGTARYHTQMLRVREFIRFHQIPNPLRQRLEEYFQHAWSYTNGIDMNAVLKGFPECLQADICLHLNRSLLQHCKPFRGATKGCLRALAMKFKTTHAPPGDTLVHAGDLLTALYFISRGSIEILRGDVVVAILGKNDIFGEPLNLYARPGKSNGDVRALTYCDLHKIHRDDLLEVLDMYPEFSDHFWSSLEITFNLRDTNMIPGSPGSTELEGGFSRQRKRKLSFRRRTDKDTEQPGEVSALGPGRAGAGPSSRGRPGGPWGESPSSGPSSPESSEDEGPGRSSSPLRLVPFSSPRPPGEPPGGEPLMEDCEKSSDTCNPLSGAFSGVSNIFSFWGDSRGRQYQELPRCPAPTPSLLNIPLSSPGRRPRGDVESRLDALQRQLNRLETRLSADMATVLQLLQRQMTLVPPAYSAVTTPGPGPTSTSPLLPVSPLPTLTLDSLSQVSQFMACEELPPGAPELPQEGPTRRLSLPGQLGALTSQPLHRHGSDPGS

SMILES	hERG current change (%, negative = inhibition) at 1uM
O=C(CSCc1c(F)cccc1Cl)Nc1cccnc1	10.5%
CN(C)C(=O)c1ccc(-n2cnc3ccccc3c2=O)cc1	13.6%
CCN(c1ccc(OC)cc1)S(=O)(=O)c1nnc(NC(=O)COc2ccc(F)cc2)s1	8.23%
CCC(C)c1ccc(OCC(=O)Nc2ccc(CN3CCOCC3)cc2)cc1 (centres unmarked)	12.8%
O=C(O)CSc1nnc(COc2ccc([N+](=O)[O-])cc2)n1-c1ccccc1	9.16%
Cc1ccc(F)cc1NCC(=O)Nc1ccc(Br)cc1	14.2%
CC(=O)SC(C)CC(=O)NCc1ccccc1 (centres unmarked)	18.2%
CN=C(c1ccccc1)c1c(C)cccc1C	6.34%
CC(C)N(CCCNC(=O)c1ccc(N2CCCC2=O)cc1)Cc1ccccc1	9.08%
COC(=O)C1=C(c2ccc3ccccc3c2)C[C@@H]2CC[C@H]1N2C(=O)N1CCCC1	11.4%
CC(C)(C)c1ccc(CS(=O)(=O)CC2(O)CCN(C(=O)c3cccc(C(F)(F)F)c3)CC2)cc1	-4.37%
Cc1ccccc1N=C1NN=C(c2ccccc2F)CS1	8.2%
CN1CCN(CCNC(=O)Cn2c(=O)c3cccn3c3ccc(F)cc32)CC1	8.3%
CC(Sc1nc2ccccc2o1)C(=O)O (centres unmarked)	6.76%
CSc1ncccc1C(=O)OCC(=O)NC(N)=O	11.8%
Cc1ccccc1-n1c(SCc2ccccn2)nc2n[nH]c(C)c2c1=N	5.65%
O=C(Cc1ccc(Cl)cc1)c1c[nH]c(C(=O)NCCCN2CCOCC2)c1	-7.06%
CCCCOc1ccc(C(=O)N2CCCC2)cc1	-0.0678%
Cc1ccc(OCC(O)CN2CCCC2)cc1 (centres unmarked)	16.4%
Clc1ccccc1Nc1ncnc(-n2cccc2)n1	0.742%
Cc1nc(NCCc2ccc(Cl)cc2)c2nnn(Cc3ccccc3)c2n1	14.3%
CC(C)(C)OC(=O)N1CCC(NC(=O)c2[nH]cnc2C(=O)Nc2cccc(Cl)c2)CC1	4.09%
COc1ccc(NC(=O)CNC(=O)Cc2cccc3ccccc23)c(OC)c1	10.4%
CC(C)CCn1c(N2CCC(C(N)=O)CC2)nc2c1c(=O)[nH]c(=O)n2C	9.76%

SMILES	hERG current change (%, negative = inhibition) at 1uM
COC(=O)c1cccc(NC(=S)N2CCCCC2)c1	11.8%
COc1ccc2cc(CN(C(=O)Nc3ccccc3OC)C3CCCC3)c(=O)[nH]c2c1	0.809%
CC(NC(=O)CN1CCc2ccccc21)c1ccccc1 (centres unmarked)	9.82%
O=c1cc(N2CCCCC2)c(-c2ccccc2)nn1Cc1cccc(Cl)c1	1.98%
CC(C)(C)c1cc(CN2CCC(O)CC2)cc(C(C)(C)C)c1O	-46.8%
CC(C)=CCC(C)(C)C1OCCN1C(=O)Nc1ccccc1 (centres unmarked)	-5.15%
CCC(Sc1nc2ncccc2[nH]1)C(=O)N1CCOCC1 (centres unmarked)	-9.13%
O=C(Nc1ccccc1C(=O)N1CCOCC1)c1cccnc1	4.41%
Cc1ccc(N=Cc2cc(Cl)cc(Cl)c2O)nc1	-1.54%
CCOc1cc(N2CCCC2)ccc1[N+](=O)[O-]	5.99%
O=C(COC(=O)c1ccc(O)cc1)Nc1cccc(S(=O)(=O)NC2=NCCCCC2)c1	10.1%
CN(C)S(=O)(=O)NCCNc1ccc(C(F)(F)F)cc1[N+](=O)[O-]	6.51%
Cc1cc(N2C(=O)c3ccc(C(=O)Nc4ccc(O)cc4C(=O)O)cc3C2=O)no1	-6.36%
CNC(=O)c1c(NC(=O)c2ccc(N3C(=O)CCC3=O)cc2)sc2c1CCC(C)C2 (centres unmarked)	8.24%
NC(=O)COC(=O)c1cccc(NS(=O)(=O)/C=C/c2ccccc2)c1	-7.53%
S=C(NCC1CCCO1)N1CCN(c2cccc(Cl)c2)CC1 (centres unmarked)	9.39%
CCCCC/C=N\NC(=O)Cc1ccc([N+](=O)[O-])cc1	16.6%
CN(CCC#N)S(=O)(=O)c1cc2c3c(c1)CCN3C(=O)CC2	31.5%
CCn1ncc(Cl)c1C(=O)NC(=S)Nc1ccccc1Br	21.1%
CN(C)c1cncc(C(=O)O)c1	7.94%
OCCC1CN(Cc2cc(F)ccc2F)CCN1CCCc1ccccc1 (centres unmarked)	-47.2%
CCCc1cc(=O)[nH]c(-n2[nH]c3c(c2=O)CCCC3)n1	11.5%
Cc1cc(C)c2[nH]c(O)c(N=NC(=O)c3cc4c(s3)CCCC4)c2c1	15.5%
